B1: LINE1-mini (parent)
chain: GGCAGAGCUCAACACAGCGUGGCAAAGUGGCUGUGGCUAGACUGCC

Here are results for 56 variants from the RNAGym collection of RNA variant scans (doi:10.7554/elife.90254).

Read counts are not given, so values of variants with three or more changes are uncertain.

Variants of B1 are the subject of this data set. Description: self-cleavage, relative activity (ratio to wild type); higher = more cleavage; in vitro, sequencing; the parent is a self-cleaving ribozyme.
As to GGCAGAGCUCAACACAGCGUGGCAAACUGGCCGUCGCUAGCCCGCC [G27C U32C G35C A41C U43C], the self-cleavage was found to be 0.16.
GGCAGAGCUCAACACAGCGUGGCAAAUUCGCUGUGGCUAGAAUGCC [G27U G29C C42A]: the self-cleavage worked out at 0.04.
The same measure for GGCAGAGCUCAACACAGCGUGGCAAAUAGGCUGUCGCUAGACUGCU [G27U U28A G35C C46U]: 0.23; for GGCAGAGCUCAACACAGCGUGGCAAAGGGGCUGUGGCUAGUUUGCC [U28G A41U C42U]: 0.01.
For GGCAGAGCUCAACACAGCGUGGCAAAGAGGCUGUGGCAAGUCUGCC [U28A U38A A41U] the value was 0.08; for GGCAGAGCUCAACACAGCGUGGCAAAGUAGCUGUGGCUAAACUGAC [G29A G40A C45A], 0.09.
In the case of GGCAGAGCUCAACACAGCGUGGCAAAGUAGCCGUGGGUAGACUGCC [G29A U32C C37G], the self-cleavage was 0.06.
In the case of GGCAGAGCUCAACACAGCGUGGCAAAUUGACUGUGGCUAGACUGCG [G27U G30A C46G], the self-cleavage was 0.25.
As for GGCAGAGCUCAACACAGCGUGGCAAAGCGGCUGUGGCUGCAAUGAC [U28C A39G G40C C42A C45A], the self-cleavage worked out at 0.07.
Consider GGCAGAGCUCAACACAGCGUGGCAAAGGGACAAUGGCUGGACUGCC [U28G G30A U32A G33A A39G], for which the self-cleavage was found to be 0.05.
The same measure for GGCAGAGCUCAACACAGCGUGGCAAAGAGGCUGUGGCUUGACAGCC [U28A A39U U43A]: 0.14.
For GGCAGAGCUCAACACAGCGUGGCAAAUUGGCUGUGGCUAGACCCCC [G27U U43C G44C] the value was 0.16.
The same measure for GGCAGAGCUCAACACAGCGUGGCAAACUUGAUGUGGCUAGACUGCC [G27C G29U C31A]: 0.75; for GGCAGAGCUCAACACAGCGUGGCAAAGGGGCUAUGCCUAGACUGCC [U28G G33A G36C]: 0.01.
On to GGCAGAGCUCAACACAGCGUGGCAAACUGGCCGUGGCUAGACUUCC [G27C U32C G44U], for which the self-cleavage came out at 0.07.
As for GGCAGAGCUCAACACAGCGUGGCAAACUCGCUGUGGCUAUACUGCC [G27C G29C G40U], the self-cleavage came out at 0.03.
Take GGCAGAGCUCAACACAGCGUGGCAAAUUUGCUGCAGCUAGACUGCC [G27U G29U U34C G35A]: the self-cleavage is 0.07.
The same measure for GGCAGAGCUCAACACAGCGUGGCAAAGAGGCUGUGGCUUGACUGUC [U28A A39U C45U]: 0.08; for GGCAGAGCUCAACACAGCGUGGCAAAGCGGGUGGGGCUAGACUGCC [U28C C31G U34G]: 0; for GGCAGAGCUCAACACAGCGUGGCAAAGUAGCUGUGGCUAGAGUGCG [G29A C42G C46G]: 0.03.
Consider GGCAGAGCUCAACACAGCGUGGCAAACUGGGUGUUGCUGGACUGCC [G27C C31G G35U A39G], for which the self-cleavage was 0.02.
For GGCAGAGCUCAACACAGCGUGGCAAACUGGCUGUGGCAAGACUGAC [G27C U38A C45A], the self-cleavage stood at 0.17.
In the case of GGCAGAGCUCAACACAGCGUGGCAAACUAGCAGUGGCUAGACUGCC [G27C G29A U32A], the self-cleavage is 0.01.
Regarding GGCAGAGCUCAACACAGCGUGGCAAAUUGGCUGUGGGUAGACUGUC [G27U C37G C45U], the self-cleavage came out at 0.04.
On to GGCAGAGCUCAACACAGCGUGGCAAAGCUGCUGUGGCUAACCUGCC [U28C G29U G40A A41C], for which the self-cleavage is 0.04.
Take GGCAGAGCUCAACACAGCGUGGCAAACAGGCUGUGGCUGGACUGCC [G27C U28A A39G]: the self-cleavage turned out to be 0.04.
GGCAGAGCUCAACACAGCGUGGCAAACUUACUUUGGCUAGACUGCC [G27C G29U G30A G33U]: the self-cleavage came to 0.03.
The same measure for GGCAGAGCUCAACACAGCGUGGCAAAGAGGCUGUGCCUAGUCCUCC [U28A G36C A41U U43C G44U]: 0.04.
Turning to GGCAGAGCUCAACACAGCGUGGCAAAGGGGGUGUGGCUACACUGCA [U28G C31G G40C C46A], the self-cleavage was 0.03.
Turning to GGCAGAGCUCAACACAGCGUGGCAAAGGGGCUGUGGCUCGACUGCA [U28G A39C C46A], the self-cleavage is 0.08.
Turning to GGCAGAGCUCAACACAGCGUGGCAAAGCGGCUGUGGCUCGAAUGCC [U28C A39C C42A], the self-cleavage was determined as 0.02.
As for GGCAGAGCUCAACACAGCGUGGCAAAGUAGCGGUGGCUAAACUGCC [G29A U32G G40A], the self-cleavage worked out at 0.02.
For GGCAGAGCUCAACACAGCGUGGCAAACUUGUUUUGGGUAGACUGCC [G27C G29U C31U G33U C37G] the value was 0.03; for GGCAGAGCUCAACACAGCGUGGCAAAUUUGCUGUCGCUAGACUUCC [G27U G29U G35C G44U], 0.03; for GGCAGAGCUCAACACAGCGUGGCAAACUGGCUGUGUCUAGACGUCC [G27C G36U U43G G44U], 0.01.
As to GGCAGAGCUCAACACAGCGUGGCAAAGGGGCUGUGGCAAGACUGCU [U28G U38A C46U], the self-cleavage is 0.15.
With GGCAGAGCUCAACACAGCGUGGCAAAGAUGCUGUGGCUCGACUCCC [U28A G29U A39C G44C], the self-cleavage is 0.03.
With GGCAGAGCUCAACACAGCGUGGCAAAGCGGCUGUGGCUAGGCUCCC [U28C A41G G44C], the self-cleavage is 0.11.
In the case of GGCAGAGCUCAACACAGCGUGGCAAAGAAGCCGUGGCUAAACUGCC [U28A G29A U32C G40A], the self-cleavage turned out to be 0.11.
Consider GGCAGAGCUCAACACAGCGUGGCAAAUUGGCUGUGACUAGAGUGCC [G27U G36A C42G], for which the self-cleavage was determined as 0.01.
GGCAGAGCUCAACACAGCGUGGCAAACAGGCUGAGGCUAGACUACC [G27C U28A U34A G44A]: the self-cleavage is 0.13.
Turning to GGCAGAGCUCAACACAGCGUGGCAAACUGGCUGUUGGUAGCCUACC [G27C G35U C37G A41C G44A], the self-cleavage stood at 0.05.
In the case of GGCAGAGCUCAACACAGCGUGGCAAAAUGGCUGUGGCUAGACAGAC [G27A U43A C45A], the self-cleavage was found to be 0.04.
The same measure for GGCAGAGCUCAACACAGCGUGGCAAAGUAACUGUUGCUAGUCUGCC [G29A G30A G35U A41U]: 0.05.
On to GGCAGAGCUCAACACAGCGUGGCAAAGCGACUGUGGCUAGACUACC [U28C G30A G44A], for which the self-cleavage was determined as 0.21.
On to GGCAGAGCUCAACACAGCGUGGCAAACUUCCUGUGGCUAUACUGCA [G27C G29U G30C G40U C46A], for which the self-cleavage came to 0.19.
For the variant GGCAGAGCUCAACACAGCGUGGCAAACUGGUUGUGGCUAGACUACC [G27C C31U G44A], the self-cleavage stood at 0.05.
Consider GGCAGAGCUCAACACAGCGUGGCAAACAAACUGUGUCUAGACUCCC [G27C U28A G29A G30A G36U G44C], for which the self-cleavage was 0.04.
Turning to GGCAGAGCUCAACACAGCGUGGCAAAGGUGCUGUGGCUAAACUGCC [U28G G29U G40A], the self-cleavage came out at 0.69.
For the variant GGCAGAGCUCAACACAGCGUGGCAAAGCGCCUCUGGCGACACUCCC [U28C G30C G33C U38G G40C G44C], the self-cleavage came out at 0.
GGCAGAGCUCAACACAGCGUGGCAAACUGGCUGUGGAUAGACUGUC [G27C C37A C45U]: the self-cleavage amounted to 0.05.
For GGCAGAGCUCAACACAGCGUGGCAAAGUAGCCGUGGCUAGACAGCC [G29A U32C U43A], the self-cleavage is 0.03.
Take GGCAGAGCUCAACACAGCGUGGCAAAGCGGCUGUGGCUAGCCGGCC [U28C A41C U43G]: the self-cleavage is 0.07.
The same measure for GGCAGAGCUCAACACAGCGUGGCAAAGUAGCUGUGCCUUGACUUCC [G29A G36C A39U G44U]: 0.04.
The same measure for GGCAGAGCUCAACACAGCGUGGCAAAAUGGCGGUGGCUAGGCUGCC [G27A U32G A41G]: 0.03; for GGCAGAGCUCAACACAGCGUGGCAAAGUAGCUGUGGCUACUCUGCC [G29A G40C A41U]: 0.02.
